This note sets out measurements from US9682994B2, “Inhibitors of retroviral replication” (The Scripps Research Institute, priority 2011, dated 2017).

SMILES strings stand for the structures.

This assay concerns the target P-TEFb complex, CDK9 and Cyclin T1 (Homo sapiens, UniProt O60563+P50750). The assay is described as follows: Bio-CA pull-down, P-TEFb. As for the experimental part:
FIG. 15: CA binds Tat but not to TAR-nonbinding mutant of Tat. HEK293T cells were transfected with wt-Tat101-flag, vvtTat86-flag, Tat86mutant-TAR domain, CDK11-flag or 9G8-flag as negative control. Forty hours later, protein extracts were incubated with DYNABEADS® MYONE™ Streptavidin T1 coated with either biotin or Biotinylated-CA. Pulled down proteins analyzed by Western blot with the indicated antibodies.
Using Bio-CA coupled to magnetic streptavidin beads, it was shown that CA interacts with Tat-flag transfected into cells but not with a mutant of Tat that no longer binds TAR. […] All the associations between CA and the cellular proteins observed might be direct or indirect, and experiments using recombinant proteins are necessary to determine the nature of these interactions.

Chain of P-TEFb complex, CDK9 and Cyclin T1 (P50750 whole entry, the tested form may be a part): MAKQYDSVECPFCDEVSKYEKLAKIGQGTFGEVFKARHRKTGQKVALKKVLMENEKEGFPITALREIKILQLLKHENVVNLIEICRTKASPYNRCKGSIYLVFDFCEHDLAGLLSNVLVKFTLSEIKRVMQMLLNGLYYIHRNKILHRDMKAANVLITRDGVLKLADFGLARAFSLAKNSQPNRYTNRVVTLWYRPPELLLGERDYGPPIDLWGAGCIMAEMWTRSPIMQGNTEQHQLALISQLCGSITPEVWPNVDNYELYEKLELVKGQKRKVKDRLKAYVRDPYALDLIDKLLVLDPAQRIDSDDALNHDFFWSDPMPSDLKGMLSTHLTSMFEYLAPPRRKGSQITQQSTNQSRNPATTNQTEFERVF
Chain of P-TEFb complex, CDK9 and Cyclin T1 (O60563 whole entry, the tested form may be a part): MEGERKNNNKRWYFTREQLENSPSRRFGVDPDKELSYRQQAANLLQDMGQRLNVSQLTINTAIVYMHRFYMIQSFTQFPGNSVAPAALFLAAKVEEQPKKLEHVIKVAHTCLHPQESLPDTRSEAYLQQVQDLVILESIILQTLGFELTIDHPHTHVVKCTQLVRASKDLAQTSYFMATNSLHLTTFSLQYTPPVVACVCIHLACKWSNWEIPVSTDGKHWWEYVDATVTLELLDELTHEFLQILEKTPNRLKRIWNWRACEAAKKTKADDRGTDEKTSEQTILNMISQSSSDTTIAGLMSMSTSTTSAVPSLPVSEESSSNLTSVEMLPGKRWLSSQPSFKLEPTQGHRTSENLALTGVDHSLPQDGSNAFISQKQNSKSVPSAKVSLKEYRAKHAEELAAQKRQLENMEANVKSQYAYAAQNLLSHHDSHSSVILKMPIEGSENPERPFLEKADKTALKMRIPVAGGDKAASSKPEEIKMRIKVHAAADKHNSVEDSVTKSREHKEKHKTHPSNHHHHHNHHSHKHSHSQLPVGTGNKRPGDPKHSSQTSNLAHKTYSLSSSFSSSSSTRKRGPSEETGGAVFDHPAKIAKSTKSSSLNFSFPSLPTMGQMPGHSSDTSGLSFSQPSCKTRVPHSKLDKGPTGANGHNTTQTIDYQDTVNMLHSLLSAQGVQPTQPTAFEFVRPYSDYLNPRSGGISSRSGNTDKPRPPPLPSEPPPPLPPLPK

As to `CN(C)C1CC23CCC4(O2)C(=CCC2(C)C(c5ccc6ccncc6c5)CCC42)C=C3C(O)C1O` (stereo not shown) [CA, Cortistatin A], the “interaction with P-TEFb complex (CDK9 and Cyclin T1)” value was “shown to interact”.
